Source: PubChem BioAssay (NCI)
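48-hour exposure; five concentrations; linearly interpolated endpoints. At the GI50, growth is halved. TGI denotes the concentration required for complete inhibition of growth.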

System: NCI-H322M lung
Experiment: inhibition of tumour cell growth, NCI panel, 48 h

Row | SMILES | TGI [µM] | GI50 [µM]
1 | NC(CCc1nc(-c2ccc(Cl)cc2)cs1)C(=O)O (configuration not stated) | > 100 | 
2 | CC(C)(C)c1cc(C(=O)/C=C/c2c(Cl)cccc2Cl)cc(C(C)(C)C)c1O | > 100 | 
3 | CC1=CC(=O)[C@@H](O)[C@]2(C)[C@H]3[C@@]4(O)OC[C@]35[C@H]([C@@H](C)[C@H]4O)[C@@H](OC(=O)C(C)(C)CO)C(=O)O[C@@H]5C[C@@H]12 | 56.2 | 
4 | Cc1ccc(N=N/C(=N/NC(=O)c2cc(Cl)ccc2O)c2ccc(N(CCC#N)CCC#N)cc2C)cc1 | > 100 | 
5 | N=C(N)c1ccc(/C=C/c2ccc(C(=N)N)cc2)cc1 | > 100 | 
6 | Cn1c(=O)c2c3ccccc3n(C)c2n(C)c1=O | > 100 | 
7 | Nc1ccc(C(=O)N/C(=C\c2ccc3c(c2)OCO3)c2nc3[nH]c(=S)[nH]c(=O)c3[nH]2)cc1 | > 100 | 
8 | COc1cc(-c2ccc(Br)[nH]2)[nH]c1C=NCC(C)C | 15.7 | 
9 | C/C(CCn1[nH]c(=O)ccc1=O)=N\O | > 100 | 
10 | CO[C@]1(c2ccc([N+](=O)[O-])cc2)Oc2ccccc2C(=O)[C@@]1(Nc1ccc(C=O)cc1)OC | > 10 | 
11 | O=C(CN1CCN(c2cc3c(cc2F)c(=O)c(C(=O)N/N=C/c2ccccc2O)cn3C2CC2)CC1)N/N=C\c1ccccc1O | > 100 | 0.363
12 | COc1ccc2c(c1)C(=O)/C(=C/c1ccc(OCC(=O)Nc3nccs3)cc1)O2 | > 100 | 38.8
13 | COc1cccc2c1C(=O)C1=C(C2=O)C(O)CC(C)(C)O1 (configuration not stated) | > 100 | 
14 | O=C(O)c1cc(C(=O)O)cc(N2C(=O)c3ccccc3C2=O)c1 | > 100 | 
15 | c1cc2c(cc1NC1=NCCO1)CCC2 | > 10 | 
16 | C/C=C/C(C#N)(/C=C/c1ccccc1)OP1(=O)OC(c2ccccc2)C(C)N1C (configuration not stated) | 36.7 | 
17 | CC(C)c1ccc(C(C)C(=O)N(CC2=C(C(C)c3ccccn3)c3ccccc3C2)C(C)C)cc1 (configuration not stated) | > 100 | 5.54
18 | CC(=O)[O][Hg][c]1c(N)c(C)cc(C)c1F | 22.7 | 9.13
19 | CSC(=N/C=C/c1ccccc1)SC | > 100 | 
20 | CC1=C(C(=O)OCCO[N+](=O)[O-])C(c2cccc([N+](=O)[O-])c2)C(C(=O)OC(C)C)=C(C)N1 (configuration not stated) | 54.4 | 
21 | NC1c2c(Br)sc(N3CCCC3)c2C(=O)C1O (configuration not stated) | > 50 | 
22 | O=[N+]([O-])c1cnc(Sc2ccncn2)s1 | 34.5 | 17.9
23 | CC(C)=C1C(=O)C[C@]2(C)C[C@H]3O[C@]3(C)CC[C@@H]3O[C@@]3(C)CC[C@@H]12 | > 50 | 
24 | CN1Cc2ccccc2S(=O)(=O)n2cccc2C1=O | > 100 | 
25 | CC1CN1P1(N2CC2C)=NP(N2CC2C)(N2CC2C)=NP(N2CC2C)(N2CC2C)=N1 (configuration not stated) | > 50 | 
26 | Fc1ccc(Nc2ncnc3ccc(-c4cnc5[nH]ccc5c4)cc23)cc1Cl | 5.92 | 0.242

Row | SMILES | TGI [µM] | GI50 [µM]
27 | O=C(O)CCC(NC(=O)c1ccc(OCc2nc3cc(C(F)(F)F)ccc3nc2-c2ccccc2)cc1)C(=O)O (configuration not stated) | > 100 | 
28 | O=[S@@]1Nc2ccc(Br)cc2S1 | > 100 | 
29 | Nn1c(CCCCCCCCc2nnc(COc3ccc(Cl)cc3Cl)n2N)nnc1COc1ccc(Cl)cc1Cl | > 100 | 
30 | CCCCCCNC(=O)C(C)C1CCC2(C)C=CC(=O)C(C)=C2C1O (configuration not stated) | > 100 | 
31 | CC(=O)N1[C@H](C(=O)O)CS[C@H]1c1ccncc1 | > 100 | 
32 | COc1cc2c(c(OC)c1O)-c1ccc(SC)c(=O)cc1C(NC(C)=O)CC2 (configuration not stated) | > 15.1 | 
33 | Cc1sc(Nc2ccc(Nc3nc(-c4ccccc4)c(C)s3)cc2)nc1-c1ccccc1 | > 100 | 
34 | CN(Cc1cnc2nc(N)nc(N)c2n1)c1ccc(C(=O)NCCS(=O)(=O)O)cc1 | > 100 | 
35 | Oc1ccc(Cl)cc1-c1cc(-c2ccccc2Cl)[nH]n1 | > 100 | 21.3
36 | O=C(N/C(=C\c1cc(Cl)ccc1Cl)c1nc2[nH]c(=S)[nH]c(=O)c2[nH]1)c1ccccc1 | > 100 | 
37 | CN(C)CCCN1c2ccc([N+](=O)[O-])cc2CCc2cccc([N+](=O)[O-])c21 | 28 | 
38 | CCOC(=O)C(Sc1ccccc1)c1c(OC)cc(=O)oc1/C=[N+](/[O-])c1ccc(N(C)C)cc1 (configuration not stated) | > 100 | 
39 | CN(C)c1ccc(C2CC(c3ccc4ccccc4c3O)=NN2)cc1 (configuration not stated) | > 100 | 
40 | COc1cc2c(c(OC)c1O)C(=O)C(OC)C(c1ccc(O)c(O)c1)O2 (configuration not stated) | > 100 | 0.742
41 | O=C1/C(=C/c2ccc([N+](=O)[O-])cc2)COc2ccc(O)c(O)c21 | 3.4 | 1.49
42 | Nc1ccccc1-c1noc(=O)[nH]1 | > 100 | 
43 | O=[N+]([O-])c1cccc2nc3ccccc3c(NCCCCNc3c4ccccc4nc4cccc([N+](=O)[O-])c34)c12 | 0.456 | 
44 | Cn1ccnc1C(=O)/C=C/c1ccc(CC(=O)Nc2ccc(Br)cc2)cc1 | 5.45 | 2.21
45 | Cc1ccc(Nc2nc(=O)c3c4ccccc4n(C(=O)OC(C)(C)C)c3s2)cc1 | > 100 | 
46 | NC(N)=N/N=C/c1c(-c2ccc(Cl)c([N+](=O)[O-])c2)nc2sc(Cl)cn12 | 7.36 | 
47 | NC(N)=Nc1ccc(-c2ccc(N=C(N)N)cc2)cc1 | > 100 | 
48 | COc1cc2c(cc1OC)[C@@H]1[C@H](C#N)C(=O)C(C)(C)N1CC2 | > 100 | 
49 | O=C(Nc1ccccc1)OCCN=C1c2ccccc2C(Br)C(Br)c2ccccc21 (configuration not stated) | 24.6 | 
50 | S=c1nc2sc3c(c2c(Nc2ccc(Cl)cc2)[nH]1)CCCC3 | > 100 | 
51 | O=C(O)CCSC(=O)Nc1cccc(F)c1 | > 100 | 
52 | Cc1ccc2c(c1)[nH]c(=S)n2C=C(C(N)=O)C(N)=O | > 100 | 
